Results taken from PubChem BioAssay AID743255 (National Center for Advancing Translational Sciences (NCATS), 2014).
Hit rate of the full screen: of about 390,000 compounds, about 910 (0.23%) were called active. Inconclusive results (about 5%) are left out. Calls follow the shape of the dose curve; as a rule, active = well fitted inhibition curve with a large enough effect; inconclusive = small, poorly fitted or top-dose-only effect; inactive = no such curve, though single readings can be large or run the other way. Only a part is listed here, and it is no random draw.

The molecules below were run against Ubiquitin carboxyl-terminal hydrolase 1 (Homo sapiens) (UniProt O94782) (assay: Inhibitors of USP1/UAF1: Primary Screen). Details: recombinant USP1/UAF1, Ub-Rhodamine cleavage fluorescence; activity change, negative = inhibition: at 57.1 µM (top of the series).
Procedure, shortened: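 USP1/UAF1 complex (1 nM) preincubated 15 min at room temperature with compound, then Ub-Rho substrate (150 nM final) added. Kinetic fluorescence at 480/540 nm over 6 reads at 60 s intervals; 50 mM HEPES pH 7.8, 0.5 mM EDTA, 0.1 mg/ml BSA, 1 mM TCEP, 0.01% Tween-20.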
% is scaled to controls: 0 for no effect and ±100 for the full control effect; potency is read from the fitted curve at half-maximal effect.
Also: nearly all actives have a fitted effect of over 60% in size.

UniProt O94782, sequence (O94782 whole entry, looked up): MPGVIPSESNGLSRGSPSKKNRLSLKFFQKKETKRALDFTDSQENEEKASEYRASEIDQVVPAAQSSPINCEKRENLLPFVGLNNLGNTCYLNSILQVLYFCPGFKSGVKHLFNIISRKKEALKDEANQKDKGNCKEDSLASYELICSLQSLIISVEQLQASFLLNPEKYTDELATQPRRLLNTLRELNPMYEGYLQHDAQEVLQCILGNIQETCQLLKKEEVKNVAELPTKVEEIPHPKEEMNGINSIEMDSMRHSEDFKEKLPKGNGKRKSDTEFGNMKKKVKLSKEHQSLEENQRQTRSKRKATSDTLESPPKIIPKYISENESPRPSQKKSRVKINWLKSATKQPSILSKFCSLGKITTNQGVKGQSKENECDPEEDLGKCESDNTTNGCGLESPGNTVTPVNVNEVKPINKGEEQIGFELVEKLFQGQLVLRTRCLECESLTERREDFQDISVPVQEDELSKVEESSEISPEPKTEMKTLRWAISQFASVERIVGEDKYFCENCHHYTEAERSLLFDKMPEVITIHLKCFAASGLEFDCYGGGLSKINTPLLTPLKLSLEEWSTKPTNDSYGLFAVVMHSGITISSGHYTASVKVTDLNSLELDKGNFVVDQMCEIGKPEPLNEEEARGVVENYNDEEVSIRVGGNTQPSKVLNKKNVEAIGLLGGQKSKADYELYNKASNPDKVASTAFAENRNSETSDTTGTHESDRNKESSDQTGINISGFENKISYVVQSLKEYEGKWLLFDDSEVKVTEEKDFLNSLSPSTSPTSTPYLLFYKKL

Activity change, negative = inhibition, inactive:
CC(=O)C[C@H](O)CC(=O)[C@H]1OC(=O)CCCCCCc2ccccc21 -17.9%
C[C@@H]1CN([C@@H](C)CO)C(=O)CCCn2nncc2CO[C@H]1CN(C)C(=O)CCC(F)(F)F -17.6%
COC(C[C@@H]1O[C@@H]1C(=O)[C@H](C)OCc1ccccc1)OC -24.4%
C=CCC[C@H](Cc1ccc(F)cc1)C(=O)OC[C@@H](Cc1c[nH]c2ccccc12)NC(=O)[C@@H](CC=C)CC(=O)N(CCO)Cc1ccccc1 13.7%
CCCOc1cccc(C2C(C(=O)c3cccs3)=C(O)C(=O)N2Cc2cccnc2)c1 (stereo unspecified) 103%
COC(=O)c1ccccc1NC(=O)CCCN1C(=O)C(c2ccccc2)Oc2cccnc21 (stereo unspecified) -30.7%
Cn1ncc2c(N3CCOCC3)ncnc21 31.6%
O=C(Nc1ccccc1)C1=C[C@H](c2ccc3c(c2)OCO3)C[C@H](OCCCCO)O1 -21.7%
O=C1N[C@@H](c2ccccc2)COC(=O)[C@@H](Cc2ccc(F)cc2)CC/C=C/C[C@H]1CC(=O)N(CCO)Cc1ccccc1 0.576%
O=C1N[C@@H](Cc2ccccc2)COC(=O)[C@H](Cc2ccc(F)cc2)CC/C=C/C[C@H]1CC(=O)N(CCO)Cc1ccccc1 3.34%
C[C@H]1COC(=O)[C@@H](Cc2ccc(F)cc2)C/C=C\C[C@@H](CC(=O)NCCO)C(=O)N1 -2.36%
C=CC[C@@H](Cc1ccc(F)cc1)C(=O)OC[C@@H]1CCCN1C(=O)[C@@H](CC=C)CC(=O)NCCO -20.1%
COc1cc2c(C(=O)N3CCN(c4cccc(Cl)c4)CC3)cn(C)c(=O)c2cc1OC -18%
CCc1ccccc1NC(=O)c1cc(-c2ccc(OC)cc2)on1 -20.1%
OCC[C@H]1C[C@H](O)[C@@H](O)[C@@]2(CCCCO2)O1 -27.7%
CC(=O)c1cccc(N(C(=O)Cn2nnc3ccccc32)C(C(=O)NCc2ccccc2)c2ccc(F)cc2)c1 (stereo unspecified) -8.52%
CCN(c1ccc(OC)cc1)S(=O)(=O)c1nnc(NC(=O)COc2ccc(F)cc2)s1 -20.7%
Cc1ccccc1OCc1n(CC(=O)OC2CC(C)CCC2C(C)C)c2ccccc2[n+]1C (stereo unspecified) -1.86%
CC1(C)OC2C(O1)[C@@H](CO)O[C@H]2n1cnc2c(N)ncnc21 (stereo partly specified) -17.2%
C=CCC[C@H](Cc1ccc(F)cc1)C(=O)OC[C@H](Cc1c[nH]c2ccccc12)NC(=O)[C@H](CC=C)CC(=O)N(CCO)Cc1ccccc1 -18.6%
O=C(O)c1ccc(Nc2nc(-c3ccccc3)c3cc(Br)ccc3n2)cc1 39.1%
O=C(O)C1=C[C@@H](c2ccc(Br)cc2)C[C@@H](OCc2ccc(CO)cc2)O1 -23.7%
C[C@@H]1CN([C@@H](C)CO)C(=O)CCCn2cc(nn2)CO[C@H]1CN(C)S(=O)(=O)c1ccccc1 -21.9%
COc1cc2ccc(=O)oc2c(O[C@@H]2O[C@H](CO)[C@@H](O)[C@H](O)[C@H]2O)c1O -23.2%
COC(C[C@@H]1O[C@H]1[C@@H](O)[C@@H](C)OCc1ccccc1)OC 0.0132%
C[C@@H]1CN(S(=O)C(C)(C)C)[C@H](CCO)/C1=C\c1ccccc1 (stereo partly specified) -26.7%
CCOC(=O)[C@@H]1[C@H]2COc3ccccc3[C@@H]2N2C(=O)N(c3ccc(Cl)cc3)C(=O)[C@]12C -19.5%
O=C(N/C(=C/c1ccccc1)C(=O)N1CCCCCC1)c1ccccc1 -11.7%
COc1ccccc1CN1C(=O)CN(C2CCCCCC2)C(=O)C1c1ccc(F)cc1 (stereo unspecified) -17%
CC(=O)Nc1ccc(S(=O)(=O)Nc2nc3ccccc3nc2-n2ccc(=NC(=O)c3ccc(F)cc3)cc2)cc1 223%
COc1ccc2cc(-c3nc(Cl)c4c5c(sc4n3)CC(C)CC5)c(=O)oc2c1 (stereo unspecified) 102%
C[C@H](O)C#Cc1ccc2c(c1)O[C@@H](CN(C)Cc1ccc(-c3ccccc3)cc1)[C@H](C)CN([C@@H](C)CO)S2(=O)=O -24%
O=C(c1cccnc1)N1CCN(Cc2cccc(Br)c2)CC1 33.8%
COC(C[C@@H]1O[C@H]1[C@H](O)COCc1ccccc1)OC -6.32%
COC(C[C@H]1O[C@H]1[C@@H](O)COCc1ccccc1)OC -28.2%
COc1ccc(-c2cc(=O)c3c(O)cc(OC4OC(COC5OC(C)C(O)C(O)C5O)C(O)C(O)C4O)cc3o2)cc1O (stereo unspecified) -25.5%

Potency, active:
O=C(NC1(O)C(=O)c2ccccc2C1=O)c1ccc(C(F)(F)F)cc1 15.8 µM
COc1ccccc1NC1=C(N2CCCCC2)C(=O)c2ccccc2C1=O 17.8 µM
Cc1ccccc1NC1=C/C(=N\S(=O)(=O)c2ccc(C(=O)O)cc2)c2ccccc2C1=O 1.26 µM
CCCN1C=CC(=CC=C(C#N)C#N)C=C1 22.4 µM
Cc1ccc(S(=O)(=O)/N=C2\C=C(Nc3ccc(O)cc3)C(=O)c3ccccc32)cc1 11.2 µM
